In PubChem BioAssay (NCI) one finds GI50 and TGI data, which are given here for five compounds.

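Cultured in 96-well plates, cells were exposed to test compound for 48 hours across five concentrations. GI50 = concentration required for 50% inhibition of growth. The concentration for full growth arrest is given as TGI.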

The assay has as its system NCI-H322M lung. The assay can be described thus: DTP human tumour cell line panel, 48 h.
The GI50 is the concentration that inhibits growth by half. As a reminder, the TGI is the concentration at which net growth stops. A low value points to more potent growth arrest. As to `COc1ccc(NC(=O)N/N=C/c2c[nH]c3ccccc23)cc1`, the GI50 is 5.45 µM and the total growth inhibition concentration (TGI) was above 100 µM.

For `COc1ccccc1[C@H]1C(C(=O)c2ccc(Cl)cc2)C2(N[C@@H]1c1ccccc1)C(=O)Nc1ccccc12` (stereo not given in full), the GI50 was 3.58 µM and the TGI amounted to 57.2 µM.

Consider `C/C(=N\N=C\c1cc([N+](=O)[O-])ccc1Cl)c1ccc2c(c1)Nc1ccccc1S2`, for which the GI50 was 17.2 µM and the TGI is above 100 µM.

`CC1[C@H]2[C@H](C[C@H]3[C@@H]4CC=C5c6sc(Nc7ccccc7F)nc6CC[C@]5(C)[C@H]4CC[C@@]32C)O[C@]12CC[C@@H](C)CO2` (stereo not given in full): the GI50 was above 100 µM and the total growth inhibition concentration (TGI) was above 100 µM.

Regarding `CO[C@H]1CSS[C@@H]1Cn1nc(-c2ccc(Oc3ccccc3)cc2)c2c(N)ncnc21`, the GI50 is 10.5 µM and the TGI was 70.8 µM.
